Several values for one entry are separate records, joined by “and”; a condition that tells them apart may be missing. Equal entries are not always repeated. This list was built around the results that the source calls inconclusive (neither active nor inactive); the mix of calls is not that of the screen. Where the call is inconclusive, the potency comes from a doubtful curve fit. Activity calls are given as the source filed them. Calls follow the shape of the dose curve; as a rule, active = well fitted cell-killing curve with a large enough effect in the repeat runs; inconclusive = weak or mixed curves, or effect the other way; inactive = flat fitted curve, though single readings scatter.
Assay: Caspase-3/7 induction in HepG2 cells by small molecules, qHTS cell viability counter screen (AID 1346981); also: nearly all actives have a fitted effect of over 30% in size
Details: CellTiter-Fluor fluorescence, 17 h; series mostly up to 92.4 µM
From the text: U.S. Tox21 Program National Center for Advancing Translational Sciences [NCATS] NIH Chemical Genomics Center [NCGC] U.S. Environmental Protection Agency [EPA] National Institutes of Environmental Health Sciences [NIEHS] National Toxicology Program [NTP] U.S. Food and Drug Administration [FDA] Tox21 Assay Overview: Apoptosis is a process of programmed cell death and plays a central role in the development of multicellular organisms. It is a highly regulated process and induces cell death by activating caspases, which are the members of cysteine aspartic acid-specific protease (caspase) family. Caspases involved in apoptosis are classified by their mechanism of action as initiator caspases (caspase-2, -8, -9 and -10) and executioner caspases (caspase-3, -6, and -7). Inhibition of apoptosis results in number of cancers, autoimmune diseases, inflammatory diseases and viral infection. To identify small molecule compounds that induce apoptosis, a homogeneous, luminescent Caspase-Glo 3/7 assay was used. Wild type HepG2 cells were used to screen Tox21 libraries for identifying caspase-3/7 activity inducers. Also cytotoxicity of the compounds was tested in parallel by measuring the cell viability using CellTiter-Fluor assay system in the same wells.
Tox21 Assay Protocol Summary: HepG2 cells were dispensed at 2,000 per well in 5uL of culture medium into white solid bottom 1536-well plates (Corning Life Sciences, Corning, NY) using a Multidrop Combi (Thermo Scientific, Waltham, MA) dispenser. The assay plates were incubated at 37 C and 5% CO2 for 5hr, and then 23nL of compounds dissolved in DMSO and positive control were transferred using a Pintool station ([…], San Diego, CA). The assay plates were incubated at 37C and 5% CO2 for 17hr. For cytotoxicity read, after 16hr incubation at 37C, 1uL CellTiter-Fluor reagent (Promega Corporation, Madison, WI) was added to each well of the assay plates using Flying Reagent Dispenser (FRD, Aurora Discovery, San Diego, CA). After 1hr incubation at 37C and 5% CO2, the fluorescence signal was quantified using a ViewLux plate reader (PerkinElmer, Shelton, CT).
Potency is read from the fitted curve at half-maximal effect; tags tell the direction and shape of the fitted curve.

| Compound | Potency |
| --- | --- |
| Oc1ccc(O)c2c(O)cccc12 | inconclusive: 68 µM [cytotoxic, single point] |
| COc1ccc(C(=O)c2cccc(O)c2)c(OC)c1 | inconclusive: 68.5 µM [cytotoxic, partial curve, poor fit] |
| O=C1CCCC(=O)O1 | inactive |
| CN(C)C(=O)C(CCN1CCC(O)(c2ccc(Cl)cc2)CC1)(c1ccccc1)c1ccccc1 | inconclusive: 29.8 µM [cytotoxic, partial curve] |
| C[C@H]1C[C@@H]2[C@H]([C@@H](O)C[C@@]3(C)[C@H]2CC[C@]3(O)C(=O)CO)[C@@]2(C)C=CC(=O)C=C12 | inactive |
| CC(=O)C(C)C | inconclusive: 21.7 µM [rising, partial curve] |
| Cc1ccc(S)cc1 | inconclusive: 27.3 µM [cytotoxic, single point] |
| CC(C)(C)c1ccc(OCC2CO2)cc1 (stereo not given) | inconclusive: 70 µM [cytotoxic, partial curve] |
| CCN(CC)CCOc1ccc2c(c1)C(=O)c1cc(OCCN(CC)CC)ccc1-2 | inconclusive: 26.6 µM [cytotoxic, partial curve] |
| NCc1ccccc1 | inactive |
| O=C(O)[C@@H](O)[C@H](O)[C@H](O)[C@@H](O)C(=O)O | inconclusive: 29.8 µM [rising, partial curve, poor fit] |
| OCCOCCN1CCN(C2=Nc3ccccc3Sc3ccccc32)CC1 | inconclusive: 33.5 µM [cytotoxic, partial curve, poor fit] |
| NCCS | inactive |
| CC(C)(N)CO | inactive |
| O=C1N(c2ccccc2)c2ccccc2C1(Cc1ccncc1)Cc1ccncc1 | inconclusive: 21.1 µM [rising, partial curve, poor fit] |
| NC(N)=N/N=C/c1c(Cl)cccc1Cl | active: 29.8 µM |
| CCOC(=O)COc1ccc2c(c1)CC(NCC(O)c1cccc(Cl)c1)CC2 (stereo not given) | inconclusive: 61.6 µM [cytotoxic, single point] |
| CCN(CC)C(=O)Nc1ccc(OCC(O)CNC(C)(C)C)c(C(C)=O)c1 (stereo not given) | inactive |
| OC(CN1CCC(Cc2ccc(F)cc2)CC1)c1ccc(Cl)cc1 (stereo not given) | inconclusive: 33.5 µM [cytotoxic] |
| Nc1cnn([C@@H]2O[C@H](CO)[C@@H](O)[C@H]2O)c(=O)n1 | inactive |

| Compound | Potency |
| --- | --- |
| COc1cccc(N(C)C(=S)Oc2ccc3c(c2)CCCC3)n1 | inactive |
| CC(C)C/C=C(\C=O)c1ccccc1 | inconclusive: 48.6 µM [cytotoxic, partial curve] |
| O=[N+]([O-])c1ccc(NCCO)c(OCCO)c1 | active: 27.3 µM |
| CCCCCCCCCCCCCCCCC(=O)O | inactive |
| CCC(Cc1ccccc1)(C(=O)c1ccc(N2CCOCC2)cc1)N(C)C (stereo not given) | inconclusive: 77 µM [cytotoxic, single point] |
| CCCCCCCCNC | inconclusive: 19.3 µM [rising, partial curve, poor fit] |
| O=c1[nH]c2ccc(S(=O)CCN3CCC(Cc4ccc(F)cc4)CC3)cc2o1 (stereo not given) | inconclusive: 54.5 µM [cytotoxic, partial curve] |
| O=C(NCC1CCCCN1)c1cc(OCC(F)(F)F)ccc1OCC(F)(F)F (stereo not given) | inconclusive: 75.6 µM [cytotoxic, single point] |
| O=C1OC2(c3ccccc31)c1ccc(O)c(Br)c1Oc1c2ccc(O)c1Br | active: 27.3 µM |
| CCc1ccc(CCOc2ccc(CC3SC(=O)NC3=O)cc2)nc1 (stereo not given) | inconclusive: 77 µM [cytotoxic, single point] |
| CC(C)CC(=O)C1C(=O)c2ccccc2C1=O | inconclusive: 68.6 µM [cytotoxic, single point] |
| Cc1ccc(C(=O)C(=O)O)cc1C | inactive |
| Oc1ccc(/C=C/c2cc(O)cc(O)c2)cc1 | inconclusive: 61.7 µM [cytotoxic, partial curve] and inconclusive: 27.3 µM [cytotoxic, full curve] |
| COc1ccc(C(=O)N2CCN(CC(=O)N3CCOCC3)CC2)cc1 | inactive |
| CCCCCCOc1ccc(N)cc1 | inactive |
| COc1c(N2CCNC(C)C2)c(F)cc2c(=O)c(C(=O)O)cn(C3CC3)c12 (stereo not given) | inactive |
| CC1=C(C)S(=O)(=O)CCS1(=O)=O | inconclusive: 75.6 µM [cytotoxic, single point] and inconclusive: 68.6 µM [cytotoxic, single point] |
| OCC(CO)N[C@H]1C[C@](O)(CO)[C@@H](O)[C@H](O)[C@H]1O | inactive |
| CC(=O)Nc1ccc(OC(=O)c2ccccc2OC(C)=O)cc1 | inactive |
| CN1CCN(C2=Nc3ccccc3Oc3ccc(Cl)cc32)CC1 | inconclusive: 33.5 µM [cytotoxic] |
